Reference: article PMC4336329 (PLoS ONE, 2015)
In all, about 310,000 compounds went through this assay and about 2,200 (0.71%) showed an effect of 50% or more. The effect is printed as a negative number. The list shows a part of the results.

Biological target: human ether-à-go-go-related gene (hERG) potassium channel (human, UniProt Q12809)
Test: primary screen, population patch clamp on CHO cells stably expressing hERG

Sequence of human ether-à-go-go-related gene (hERG) potassium channel (Q12809 whole entry, looked up): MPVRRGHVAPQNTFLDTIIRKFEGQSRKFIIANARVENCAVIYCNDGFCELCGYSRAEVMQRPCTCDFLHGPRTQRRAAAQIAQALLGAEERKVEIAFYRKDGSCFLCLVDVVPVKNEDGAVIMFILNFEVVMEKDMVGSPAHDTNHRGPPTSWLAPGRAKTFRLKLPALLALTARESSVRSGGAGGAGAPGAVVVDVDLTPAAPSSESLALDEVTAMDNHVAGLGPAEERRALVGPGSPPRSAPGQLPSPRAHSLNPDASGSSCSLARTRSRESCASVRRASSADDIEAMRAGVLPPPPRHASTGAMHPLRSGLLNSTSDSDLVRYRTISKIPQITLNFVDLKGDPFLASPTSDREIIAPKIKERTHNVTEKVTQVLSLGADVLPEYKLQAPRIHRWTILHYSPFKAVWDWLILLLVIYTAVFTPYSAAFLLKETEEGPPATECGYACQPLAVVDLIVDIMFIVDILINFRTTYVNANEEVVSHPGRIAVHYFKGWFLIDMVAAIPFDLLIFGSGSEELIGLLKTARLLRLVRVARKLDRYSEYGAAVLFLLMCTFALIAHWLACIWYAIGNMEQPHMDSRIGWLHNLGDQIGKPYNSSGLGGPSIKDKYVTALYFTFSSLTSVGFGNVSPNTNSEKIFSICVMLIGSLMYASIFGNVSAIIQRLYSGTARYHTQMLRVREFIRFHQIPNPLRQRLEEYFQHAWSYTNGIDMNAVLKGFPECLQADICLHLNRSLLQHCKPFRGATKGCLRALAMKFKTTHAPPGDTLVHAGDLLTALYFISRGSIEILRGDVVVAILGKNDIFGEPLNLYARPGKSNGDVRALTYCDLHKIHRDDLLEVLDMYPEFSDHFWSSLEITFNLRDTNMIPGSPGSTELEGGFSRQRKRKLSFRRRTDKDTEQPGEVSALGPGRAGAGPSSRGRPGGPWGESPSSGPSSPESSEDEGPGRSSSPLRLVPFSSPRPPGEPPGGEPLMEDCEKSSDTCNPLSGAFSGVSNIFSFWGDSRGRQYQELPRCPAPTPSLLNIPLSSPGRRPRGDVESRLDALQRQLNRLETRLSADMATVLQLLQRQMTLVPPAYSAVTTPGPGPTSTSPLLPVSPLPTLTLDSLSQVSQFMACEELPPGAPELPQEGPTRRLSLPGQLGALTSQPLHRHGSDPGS

Row | SMILES | hERG current change (%, negative = inhibition) at 1uM
1 | O=C(Nc1ccc(F)cc1)C1CCCCC1 | 3.09%
2 | COc1ccc(C2=C(Nc3ccc(F)cc3)c3ccccc3C2=O)cc1 | 13%
3 | CC(C(=O)Nc1ccccc1-c1ccccc1)N1CCN(C(=O)c2ccccc2)CC1 (stereo not shown) | -34.4%
4 | COc1ccccc1N(C)S(=O)(=O)c1ccc(C(=O)NC(C)c2ccccc2)cc1 (stereo not shown) | 8.1%
5 | NC(N)=Nc1nc2cc([N+](=O)[O-])ccc2o1 | 10.7%
6 | CCCCOC(=O)n1c(=S)oc2cc(Cl)ccc21 | 9.47%
7 | COc1cc(NC(=O)CN(C)S(=O)(=O)c2ccc3nc(C)sc3c2)cc(OC)c1 | 29.4%
8 | CCOc1cc(S(=O)(=O)Nc2ncn[nH]2)ccc1Br | 14.8%
9 | CC(C)(C)c1ccc(-c2noc(CCC(=O)Nc3cccnc3)n2)cc1 | 17.8%
10 | COc1cc(CNc2ccc3[nH]c(=O)[nH]c3c2)cc(Br)c1OCc1ccc(F)cc1 | 18.3%
11 | CCC1=Nc2cc(C(=O)N3CCC4(CC3)OCCO4)ccc2Sc2ccc(C)cc21 | 10.5%
12 | Cc1ccsc1/C=N/NC(=O)C(O)c1ccccc1 (stereo not shown) | 17%
13 | CN(C)S(=O)(=O)c1cc(NC(=O)CN2CCOCC2)ccc1Cl | 16.1%
14 | CN(C)CCCNC(=S)NCCNc1nc2cc3c(cc2cc1C#N)OCO3 | -14.9%
15 | CCOC(=O)c1sc(NC(=O)C(CC)Sc2nnc3c4ccccc4n(CC)c3n2)nc1C (stereo not shown) | -4.01%
16 | O=C(CSc1ccc(Cl)cc1)NC(=O)NCc1ccco1 | 5.53%
17 | COc1cc(/C=N/NC(=O)C2c3ccccc3Oc3ccccc32)ccc1O | 8.49%
18 | COc1ccc(C(=O)COC(=O)c2cncc(Br)c2)cc1 | 10.3%
19 | N=c1c(C(=O)NCC2CCCO2)cc2c(=O)n3ccccc3nc2n1C1CCCCC1 (stereo not shown) | -79.2%
20 | CC(=O)c1c(C)nc(-c2ccc(OCC(=O)Nc3ccc(F)cc3)cc2)n1O | 3.16%
21 | O=C1CN(C(=O)COc2ccccc2F)c2ccccc2N1 | 10.1%
22 | Nc1cc(C(=O)N2CCCC2)cc(C(=O)N2CCCC2)c1 | 16%
23 | O=C(Nc1ccccc1)c1cccnc1N1CCCC1 | 6.81%
24 | CCN(CCCNC(=O)C1CCC(=O)N1C(C)C)c1cccc(C)c1 (stereo not shown) | -1.36%
25 | COc1ccccc1N1CC(O)=C(c2nc3ccccc3c(=O)[nH]2)C1=N | 8.4%
